Reference: the supplement of paper PMC4166925
± gives the standard deviation of the averaged measurements. The full ranking holds about 33,000 sequences; the median of “E-score (dimensionless, -0.5 to 0.5)” is about -0.049, and the highest 2% start at about 0.37. Some of the results follow.

What follows are sequences tested on T1, PmTbr T-box DNA-binding domain (GST fusion) (assay: PBM E-score of 8-mer (E-score (dimensionless, -0.5 to 0.5)); Tbr is Tbrain of the sea star Patiria miniata (Pm) or the sea urchin Strongylocentrotus purpuratus (Sp); higher = stronger binding preference; most listed sequences are background and not binding sites). Conditions: the construct has about 5 more residues each side.
T1 sequence: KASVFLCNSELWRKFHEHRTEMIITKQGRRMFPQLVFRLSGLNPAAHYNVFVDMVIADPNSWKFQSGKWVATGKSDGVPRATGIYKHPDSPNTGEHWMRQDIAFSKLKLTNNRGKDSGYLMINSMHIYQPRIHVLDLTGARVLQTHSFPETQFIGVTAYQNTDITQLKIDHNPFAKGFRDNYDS
Summary of the method: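 Primer extension turned Universal Agilent oligonucleotide arrays double-stranded. They were incubated with 200 nM protein in PBS (pH 7.5); the protein was a GST-fused Tbr T-box DNA-binding domain expressed in BL21 E. coli at 20 °C and purified on glutathione. Every ungapped 8-mer was scored from the scanned, quantified probe intensities, and the Universal PBM Analysis Suite gave each an enrichment E-score averaged over duplicate arrays.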

| Sequence | PBM E-score of 8-mer |
| --- | --- |
| GACACTTA | 0.3962 ± 0.0036 |
| GCTGCAGA | 0.033 ± 0.027 |
| AAACACTT | 0.348 ± 0.042 |
| ATGTCAAA | 0.0972 ± 0.0062 |
| TAGGATCA | -0.22 ± 0.059 |
| AACGCGAG | 0.123 ± 0.052 |
| ACACGCAA | 0.106 ± 0.029 |
| GCCCCGGA | -0.1 ± 0.028 |
| GCAACCCA | -0.0334 ± 0.089 |
| AGTTTGAT | 0.0116 ± 0.073 |
| CAAAGTGA | 0.307 ± 0.035 |
| CAACCCCA | 0.0413 ± 0.099 |
| CAGACACC | 0.355 ± 0.0066 |
| ACGATACG | -0.0423 ± 0.011 |
| CGGTCTCC | -0.176 ± 0.065 |
| CGAAGGGA | 0.00651 ± 0.088 |
| GGCAACGA | 0.0835 ± 0.033 |
| GAATCGGA | 0.0845 ± 0.029 |
| CTAGTCCA | -0.198 ± 0.054 |
| CCCGACCG | 0.0153 ± 0.029 |
| CTTTTAAA | -0.236 ± 0.058 |
| CCGCAGCA | -0.0679 ± 0.057 |

| Sequence | PBM E-score of 8-mer |
| --- | --- |
| ATTACCTG | -0.154 ± 0.037 |
| AAGGCCGT | -0.225 ± 0.053 |
| ACCGCATG | -0.233 ± 0.0099 |
| AGGCGCCG | 0.246 ± 0.016 |
| AGTGTTAC | 0.3946 ± 0.0021 |
| ACGCTTGA | 0.0807 ± 0.032 |
| AAATGGCA | 0.155 ± 0.048 |
| GTAGTATA | -0.113 ± 0.025 |
| AAGGCTTA | -0.105 ± 0.0071 |
| CATGCTCG | -0.065 ± 0.056 |
| ATGGGACG | 0.000355 ± 0.031 |
| CAAAGGGC | -0.227 ± 0.042 |
| GAGGGACA | -0.0259 ± 0.075 |
| ATGTTAAT | 0.0448 ± 0.049 |
| CCAGCCGC | -0.111 ± 0.021 |
| CCATTGAC | -0.0902 ± 0.052 |
| AGATTAAA | -0.0864 ± 0.019 |
| ATTCTAAA | -0.224 ± 0.038 |
| TCCGTTCA | 0.0167 ± 0.018 |
| AGAGTACG | -0.0162 ± 0.0013 |
| AACGTAAT | -0.191 ± 0.12 |
| AGGCTCGC | 0.158 ± 0.027 |

| Sequence | PBM E-score of 8-mer |
| --- | --- |
| CGAAGGAA | -0.0473 ± 0.07 |
| ATAAGGGA | -0.228 ± 0.039 |
| ATCGGAGC | -0.183 ± 0.044 |
| CCCGATGC | -0.2 ± 0.053 |
| GCCCTGGA | -0.253 ± 0.037 |
| ACACAAAC | 0.0688 ± 0.063 |
| ACACCAGT | 0.312 ± 0.049 |
| AGAACCCA | -0.283 ± 0.0036 |
| GGCTATGA | -0.0888 ± 0.045 |
| TATTTGGA | -0.104 ± 0.042 |
| CATAGGAA | -0.323 ± 0.034 |
| GAGGACCA | -0.295 ± 0.044 |
| CCACGAGA | -0.212 ± 0.049 |
| AGTCCTCC | -0.295 ± 0.0079 |
| CCCAGACA | 0.0586 ± 0.013 |
| GCACTGAC | 0.0486 ± 0.0086 |
| CGCGCAAC | 0.14 ± 0.051 |
| ATGGACCA | -0.263 ± 0.049 |
| GTGTGTTA | 0.274 ± 0.012 |
| ATCCGTGC | -0.0614 ± 0.051 |
| AATCTAAT | -0.111 ± 0.023 |
| CGGCGGAA | -0.06 ± 0.0026 |

| Sequence | PBM E-score of 8-mer |
| --- | --- |
| CTAGAGTA | -0.244 ± 0.022 |
| AATTCGTC | 0.119 ± 0.0033 |
| ATCAATAG | -0.212 ± 0.012 |
| CTCCCTCA | -0.0331 ± 0.14 |
| AACCCTTC | -0.377 ± 0.028 |
| CCACGTTA | 0.131 ± 0.0074 |
| ATAGGACA | -0.27 ± 0.049 |
| AAATGGGG | -0.0909 ± 0.011 |
| ACTATCCA | -0.174 ± 0.0085 |
| CAACTGAG | 0.0533 ± 0.042 |
| GACAACCA | 0.205 ± 0.035 |
| CGGTCAAC | -0.0198 ± 0.048 |
| ACTTCAGA | -0.223 ± 0.039 |
| TAGCGCCA | 0.34 ± 0.036 |
| AGACGCCG | 0.0359 ± 0.034 |
| TAGGGATA | -0.34 ± 0.0066 |
| GAAGCCGA | -0.025 ± 0.014 |
| GGCATCGA | 0.0321 ± 0.04 |
| CGGCCCAC | -0.183 ± 0.077 |
| CCCTCCGC | 0.026 ± 0.075 |
